# Data reported in PubChem BioAssay AID1671188 (National Center for Advancing Translational Sciences (NCATS), 2021).
# The campaign covered roughly 100,000 compounds. About 250 (0.25%) were called active. This list was built around the results that the source calls inconclusive (neither active nor inactive); the mix of calls is not that of the screen. Calls come from the whole dose curve; as a rule, active = well fitted inhibition curve with a large enough effect; inconclusive = small, poorly fitted or top-dose-only effect; inactive = flat fitted curve, though single readings scatter. Potencies of inconclusive entries are left out as doubtful fits.
# Target: Alanine aminotransferase 2 (Homo sapiens) (UniProt Q8TD30)
# Assay: Primary qHTS assay for inhibitors of Glutamate pyruvate transaminase 2 (GPT2); note: nearly all actives have a fitted effect of over 60% in size
# Conditions: Recombinant GPT2, coupled pyruvate oxidase/HRP Amplex Red fluorescence; activity change, negative = inhibition: at 57.7 µM (top of the series) unless noted; series mostly up to 57.7 µM
# Outline: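 Recombinant GPT2 (10ng/uL) with 250uM a-KG and 2mM L-alanine, 30 min at room temperature, in HEPES pH 7.5 buffer. Pyruvate detected by pyruvate oxidase/HRP/Amplex Red fluorescence after 30 min in the dark; AOA (50uM) as positive control.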
# % is set by controls: 0 for no effect and ±100 for the full control effect; potency is the fitted concentration of half-maximal effect; tags give direction and shape of the fitted curve.
# Chain of UniProt Q8TD30 (Q8TD30 whole entry, looked up): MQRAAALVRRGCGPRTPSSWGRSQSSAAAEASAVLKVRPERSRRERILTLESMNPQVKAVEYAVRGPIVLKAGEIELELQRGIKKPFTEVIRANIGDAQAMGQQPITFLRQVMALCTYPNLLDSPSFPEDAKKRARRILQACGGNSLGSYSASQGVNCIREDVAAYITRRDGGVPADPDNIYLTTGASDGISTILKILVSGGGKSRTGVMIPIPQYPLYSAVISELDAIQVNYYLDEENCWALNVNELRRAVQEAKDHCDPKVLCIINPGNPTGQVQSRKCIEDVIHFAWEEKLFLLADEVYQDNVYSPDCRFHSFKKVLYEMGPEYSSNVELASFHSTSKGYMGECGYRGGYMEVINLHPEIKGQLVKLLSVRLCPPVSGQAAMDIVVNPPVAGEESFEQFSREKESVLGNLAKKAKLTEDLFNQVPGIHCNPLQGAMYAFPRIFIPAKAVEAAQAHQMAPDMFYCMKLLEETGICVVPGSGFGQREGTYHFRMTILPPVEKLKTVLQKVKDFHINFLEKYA
Compound,outcome,Potency,"activity change, negative = inhibition"
CN(C)c1ccc(-n2c(=O)c(C(=O)NCC(F)F)nc3cccnc32)cc1,inactive,–,–
Clc1ccc2c(c1)Nc1ccccc1S2,–,"inconclusive [inhibitor, partial curve, poor fit]",–
Cc1ccc2[nH]c3c(c2c1)CCCC3NC(N)=O (configuration not stated),–,"inconclusive [inhibitor, full curve, poor fit]",–
COC(=O)[C@@H]1Cc2ncn(Cc3ccc(OC)cc3)c2CN1C(=O)c1ccc(C#N)cc1,–,"inconclusive [inhibitor, single point]",–
COC(=O)c1c(NC(C)=O)c2cc(NC3CCCCCC3)cnc2n1CC1CCCO1 (configuration not stated),–,"inconclusive [inhibitor, partial curve, poor fit]",–
Cc1cc(-c2cc(OC(=O)c3ccccc3)ccc2Cl)cc2nnc(Nc3ccc(OCCN4CCCC4)cc3)nc12,–,"inconclusive [inhibitor, single point]",–
Cc1ccc(C(=O)N2CCCN(c3cc(-c4ccc(Cl)cc4)[nH]n3)CC2)s1,–,"inconclusive [inhibitor, single point]",–
O=C(O)c1nn(CC2CC2)c2c1CN(C(=O)c1nccc3ccccc13)CC2,–,"inconclusive [inhibitor, single point]",–
CCOc1cccc(CNC(=O)CCC2CCN(S(=O)(=O)c3ccccc3)CC2)c1,–,"inconclusive [inhibitor, single point]",–
COc1cc(OC)c(NC(=O)CN2C(=O)NC(c3ccc(C)cc3)C3=C2COC3=O)cc1Cl (configuration not stated),–,"inconclusive [inhibitor, single point]",–
CC(C)(C)CC(=O)Nc1ccc([C@@H](O)[C@H]2COCC(=O)N2Cc2ccccc2F)cc1,–,"inconclusive [inhibitor, single point]",–
CCCCN(CC)C(=O)Cn1ccn2nc3c(c2c1=O)CCCC3,–,"inconclusive [inhibitor, full curve, poor fit]",–
c1ccc2c(CN3CCC[C@H]3c3nc(-c4ccnc(N5CCOCC5)c4)no3)c[nH]c2c1,–,–,inactive: 1.43% [at 88.5 µM]
Clc1cccc(-c2noc(-c3ncn4c3COC(c3ccccc3Cl)C4)n2)c1 (configuration not stated),–,"inconclusive [inhibitor, partial curve, poor fit]",–
C#CCCCn1cc(-c2cccc3c2N[C@H](C)CC(=O)N3)cn1,inactive,–,–
CCn1nccc1C(=O)NCCn1ccn2nc(-c3ccc(C)c(C)c3)cc2c1=O,inactive,–,–
Cc1noc2c(NC3CCN(C)CC3)cc(-c3ccccn3)nc12,inactive [at 88.5 µM],–,–
COc1ccc(C(=O)N2[C@@H]3CC[C@H]2CC(NC(=O)c2ccncc2)C3)cc1 (some centres not stated),–,"inconclusive [inhibitor, single point]",–
Cc1ccc(C(=O)N2CCC3(CC2)CC(N(Cc2ccc(F)cc2)C2CC2)CCO3)cc1 (configuration not stated),inactive,–,–
CC(C)[C@@H](N)C(=O)N1CCC(Oc2ccccc2F)(C(=O)O)CC1,–,"inconclusive [inhibitor, single point]",–
COc1ccc(-c2nc(C3CC3)nc3c2CCN(C(=O)c2ccc(C)cc2)CC3)cc1,–,–,inactive: -1.09%

Compound,outcome,Potency,"activity change, negative = inhibition"
N#Cc1ccc(-c2cnc3[nH]cc(NC(=O)c4cccnc4)c3c2)cc1,–,–,inactive: -5.83%
CCC(CC)CN1C[C@]23C=C[C@H](O2)C(C(=O)N(C)Cc2nccs2)C3C1=O (some centres not stated),–,"inconclusive [inhibitor, full curve, poor fit]",–
O=C(C1CCCN1C(=O)c1ccc(C(F)(F)F)cc1)N1CCC(N2CCCC2=O)CC1 (configuration not stated),inactive,–,–
CCc1noc([C@@H]2CC(F)(F)CN2C(=O)CCn2cccn2)n1,inactive,–,–
COC(=O)[C@@H]1Cc2ncn(Cc3ccc(OC)cc3)c2CN1S(=O)(=O)c1cccc2c(N(C)C)cccc12,–,"inconclusive [inhibitor, single point]",–
C[C@]12CCC(=O)C=C1CC[C@@H]1[C@@H]2[C@@H](O)C[C@@]2(C)[C@H]1CC[C@]2(O)C(=O)CO,–,"inconclusive [inhibitor, partial curve]",–
CN(Cc1ccc(OC(F)(F)F)cc1)C1CCOc2ccccc21 (configuration not stated),–,"inconclusive [inhibitor, full curve, poor fit]",–
Cc1cc(C[C@@H]2COC[C@@H]2NC(=O)c2ccc3nc(C)sc3c2)on1,–,"inconclusive [inhibitor, single point]",–
CCOc1ccc(CC(=O)N2CCCN(c3cc(-c4ccc(F)cc4)[nH]n3)CC2)cc1OCC,–,"inconclusive [inhibitor, single point]",–
COc1ccccc1CN1CC2(C1)C(=O)N(Cc1ccccc1)C(=O)[C@@H]1C[C@@H](O)CN12,–,"inconclusive [inhibitor, full curve, poor fit]",–
N#Cc1ccc(CN2C[C@@H](CO)[C@H](c3ccccn3)C2)cc1,–,"inconclusive [inhibitor, single point]",–
CCCN(C)C(=O)c1cn2cc(-c3cccc(Cl)c3)n(CC=C(C)C)c(=O)c2n1,–,–,inactive: -7.72%
CCCc1cc(N2CCC(NCc3cc(F)c(F)c(F)c3)CC2)nc(C)n1,–,–,inactive: 3.52%
O=C1CCN(C(=O)C2CCCC2)CCCC(c2nc(-c3cccnc3)no2)CCN1 (configuration not stated),–,"inconclusive [inhibitor, single point]",–
C[C@H]1[C@@H]2[C@@H](O)C([C@H](C)C(=O)N3CCC(Cc4ccccc4)CC3)CC[C@@]2(C)CC[C@@H]1NC(=O)c1cnccn1 (some centres not stated),–,"inconclusive [inhibitor, single point]",–
O=C(NCCNc1cccnc1)C1CCC(=O)N(Cc2ccc(Cl)cc2)C1 (configuration not stated),–,"inconclusive [inhibitor, partial curve, poor fit]",–
C/C(=C\CC/C(C)=C/CC[C@]1(C)CCc2cc(O)cc(C)c2O1)CC/C=C(\C)C(=O)O,–,"inconclusive [inhibitor, full curve, poor fit]",–
CC1CCCN(c2ncnc3c2CN(c2ccc(Cl)cc2)C(=O)CN3C)C1 (configuration not stated),–,"inconclusive [inhibitor, single point]",–
COc1cccc(CCC(=O)N2CCC3(CC2)C(=O)N(C)c2ccccc23)c1,inactive,–,–
COc1ccc(Cc2nc3nccc(-c4cccs4)n3n2)cc1,–,"inconclusive [inhibitor, single point]",–
COc1ccc(C(=O)N2CCC3(CC2)NCCc2c3[nH]c3ccccc23)cc1F,inactive,–,–

Compound,outcome,Potency,"activity change, negative = inhibition"
Cc1nn2c(N3CCC(O)C3)cc(-c3ccccc3)nc2c1C (configuration not stated),–,"inconclusive [inhibitor, full curve, poor fit]",–
COc1cc(F)ccc1CN1CCCC2(Cc3ccccc3CNC2=O)C1 (configuration not stated),–,–,inactive: -0.399%
Cc1ccc(S(=O)(=O)N2CCN(C3CCN(Cc4ccccn4)C3=O)CC2)c(C)c1 (configuration not stated),–,"inconclusive [inhibitor, partial curve, poor fit]",–
O=C(Cc1ccsc1)N1CC(c2noc(COc3ccccc3)n2)C1,–,"inconclusive [inhibitor, single point]",–
O=C1OC2(c3ccccc31)c1cc(I)c(O)c(I)c1Oc1c2cc(I)c(O)c1I,–,"inconclusive [inhibitor, full curve, poor fit]",–
CC(=O)Nc1ccc(-c2c(-c3ccc4c(c3)OCO4)nn(-c3cc(C)ccc3C)c2OC(C)=O)cc1,–,"inconclusive [inhibitor, single point]",–
COc1ccccc1-c1cccc(CN2CCCC(C(=O)NC3CCCC3)C2)c1 (configuration not stated),–,"inconclusive [inhibitor, full curve]",–
CCN1c2cc(C(=O)Nc3ccc(OC)cc3C)ccc2C(=O)N2CCCCCC21 (configuration not stated),inactive,–,–
COc1ccc(-c2noc([C@@H]3Cc4nc[nH]c4CN3C(=O)CCC(=O)O)n2)cc1,–,"inconclusive [inhibitor, single point]",–
COc1ccc(-c2ccc3c(c2)C(=O)N2C[C@@H](NS(=O)(=O)c4ccc(F)cc4)C[C@H]2C(=O)N3)c(OC)c1,–,"inconclusive [inhibitor, full curve, poor fit]",–
O=C(Nc1ccc(N2CCOCC2)cc1)C1CCN(c2cn[nH]c(=O)c2)C1 (configuration not stated),–,"inconclusive [inhibitor, partial curve]",–
CN(C)C(=O)C1CN(C(=O)Nc2cccc(Br)c2)CC12CCOCC2 (configuration not stated),–,"inconclusive [inhibitor, partial curve, poor fit]",–
COCc1cc(NCCCNc2cccnc2)ncn1,–,"inconclusive [inhibitor, single point]",–
CCOc1ncccc1Cn1cc(-c2cncnc2)nn1,–,"inconclusive [inhibitor, full curve, poor fit]",–
Cc1noc(-c2ccccc2Cl)c1C(=O)NCCOc1ccccc1,inactive,–,–
CO[C@H]1[C@H](NC(=O)Cn2nc(C)c(C)c2C)c2ccccc2C12CCNCC2,–,"inconclusive [inhibitor, single point]",–
Cc1ccsc1[C@@H]1CCN(Cc2ccc(C#CC(C)(C)O)cc2)C[C@H]1O,–,–,inactive: -21.2%
Cc1c(C)c2c(c(C)c1O)CCC(C)(COc1ccc(CC3SC(=O)NC3=O)cc1)O2 (configuration not stated),–,"inconclusive [inhibitor, partial curve, poor fit]",–
COC[C@@H]1[C@H](C(=O)NCCCc2ccccc2)CCC(=O)N1C,–,"inconclusive [inhibitor, partial curve, poor fit]",–
Clc1ccc(Cn2c(Cc3ccccc3)nc3ccccc32)cc1,–,"inconclusive [inhibitor, single point]",–
